Reference: publication doi:10.1101/2025.08.09.669456 (bioRxiv, 2025)

Experiments:
complement C3b = complement C3b (human, UniProt P01024 23-667; P01024 in part); experiment: cryo-EM structure
complement C3 = complement C3 (human, UniProt P01024 23-667; P01024 in part, Cys1010–Gln1013 thioester); experiment: cryo-EM structure

B1: factor B fragment Bb (S699A) (enzyme, human, UniProt P00751 260-764, looked up)
chain: KIVLDPSGSMNIYLVLDGSDSIGASNFTGAKKCLVNLIEKVASYGVKPRYGLVTYATYPKIWVKVSEADSSNADWVTKQLNEINYEDHKLKSGTNTKKALQAVYSMMSWPDDVPPEGWNRTRHVIILMTDGLHNMGGDPITVIDEIRDLLYIGKDRKNPREDYLDVYVFGVGPLVNQVNINALASKKDNEQHVFKVKDMENLEDVFYQMIDESQSLSLCGMVWEHRKGTDYHKQPWQAKISVIRPSKGHESCMGAVVSEYFVLTAAHCFTVDDKEHSIKVSVGGEKRDLEIEVVLFHPNYNINGKKEAGIPEFYDYDVALIKLKNKLKYGQTIRPICLPCTEGTTRALRLPPTTTCQQQKEELLPAQDIKALFVSEEEKKLTRKEVYIKNGDKKGSCERDAQYAPGYDKVKDISEVVTPRFLCTGGVSPYADPNTCRGDAGGPLIVHKRSRFIQVGVISWGVVDVCKNQKRQKQVPAHARDFHINLFQVLPWLKEKLQDEDLGFL
B1: binds (complement C3b); binds (complement C3).
